Test results published in PubChem BioAssay AID1468 (National Center for Advancing Translational Sciences (NCATS), 2008).
Out of some 280,000 compounds screened, about 1,100 (0.39%) were called active. This list was built around the results that the source calls inconclusive (neither active nor inactive); the mix of calls is not that of the screen. Calls come from the whole dose curve; as a rule, active = well fitted inhibition curve with a large enough effect; inconclusive = small, poorly fitted or top-dose-only effect, or effect the other way; inactive = flat fitted curve, though single readings scatter. No potency is given beside an inconclusive call; the fits are too rough.

Biological target: Microtubule-associated protein tau (Homo sapiens) (UniProt P10636)
Sequence of UniProt P10636 (P10636 whole entry, looked up): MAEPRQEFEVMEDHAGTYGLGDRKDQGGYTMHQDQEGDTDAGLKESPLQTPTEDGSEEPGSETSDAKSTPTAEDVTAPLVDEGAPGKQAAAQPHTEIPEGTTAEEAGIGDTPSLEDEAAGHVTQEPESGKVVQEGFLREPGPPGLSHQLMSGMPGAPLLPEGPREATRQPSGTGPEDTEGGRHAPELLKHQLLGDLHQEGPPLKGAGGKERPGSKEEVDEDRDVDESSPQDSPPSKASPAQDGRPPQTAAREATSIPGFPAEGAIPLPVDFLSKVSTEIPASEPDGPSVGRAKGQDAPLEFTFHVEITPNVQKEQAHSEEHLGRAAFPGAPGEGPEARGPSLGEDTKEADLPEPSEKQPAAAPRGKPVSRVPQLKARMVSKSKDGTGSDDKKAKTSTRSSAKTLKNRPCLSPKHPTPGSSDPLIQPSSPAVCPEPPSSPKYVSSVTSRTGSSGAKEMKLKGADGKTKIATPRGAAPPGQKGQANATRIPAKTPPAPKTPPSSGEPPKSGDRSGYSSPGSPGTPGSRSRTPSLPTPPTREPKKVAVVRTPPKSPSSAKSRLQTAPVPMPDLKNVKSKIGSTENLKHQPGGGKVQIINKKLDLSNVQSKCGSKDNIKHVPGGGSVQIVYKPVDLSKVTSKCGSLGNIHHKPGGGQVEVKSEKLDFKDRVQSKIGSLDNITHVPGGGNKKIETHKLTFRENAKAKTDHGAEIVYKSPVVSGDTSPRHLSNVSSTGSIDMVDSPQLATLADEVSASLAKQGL
Test: qHTS for Inhibitors of Tau Fibril Formation, Fluorescence Polarization; note: nearly all actives have a fitted effect of over 55% in size
Conditions: K18 P301L tau heparin fibrillization, Alexa594 FP, 6 h; series mostly up to 57.7 µM
Method in brief: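 Human K18 P301L fragment (15 uM unlabeled plus 0.24 uM Alexa 594-labeled) in 100 mM sodium acetate pH 7 with compound, aggregation induced by 20 uM heparin for 6 hr at 37 C. ThT (30 uM) added for 1 hr, then Alexa 594 FP read.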
Potency is the fitted concentration of half-maximal effect; tags give direction and shape of the fitted curve.

SMILES | Potency
COc1ccc2[nH]c(=O)c(CN(C(=O)c3cccc(Cl)c3)c3cccc(C)c3)cc2c1 | inactive
COc1cc(OC)c(C(=O)OCC(=O)Nc2cc(C)on2)cc1OC | inconclusive [activator, full curve, poor fit]
Cc1cc2c(n1-c1ccc(C(=O)NCCc3ccccc3)cc1)CCC(C)C2 (stereo not given) | inconclusive [inhibitor, partial curve]
CC(C(=O)Nc1ccccc1F)N1C(=O)c2ccccc2C1=O (stereo not given) | inconclusive [inhibitor, partial curve]
CCCCNc1ccc(C(CC(N)=O)NC(=O)Cc2cccc3ccccc23)cc1[N+](=O)[O-] (stereo not given) | inactive
CC(C)(C)C(=O)Nc1ccc2nc(SCC(=O)N3CCc4ccccc43)sc2c1 | inactive
COc1cccc(C2CC(c3cccs3)=NN2C(=O)CSC2=NN3CCCC(=O)N=C3S2)c1OC (stereo not given) | inactive
S=c1nccc(-c2ccc(Cl)cc2)[nH]1 | inconclusive [inhibitor, partial curve, poor fit]
COc1ccc2cc(CNc3ccc(C)cc3)c(=O)n(CC(=O)Nc3cccc(C(F)(F)F)c3)c2c1 | inconclusive [activator, partial curve]
Clc1cccc(Cl)c1/C=C/c1nc2ccccc2[nH]1 | inconclusive [inhibitor, single point]
CCc1ccc(-n2c(C)n[nH]c2=S)cc1 | inactive
COc1ccc(CCNC(=O)c2sc(=S)n(C)c2N)cc1 | inactive
O=c1c2cccnc2n(Cc2cccc(F)c2)c(=O)n1Cc1ccccc1Cl | inconclusive [inhibitor, full curve, poor fit]
CCOc1ccc(N(CC(=O)N/N=C/c2cc([N+](=O)[O-])ccc2Cl)S(C)(=O)=O)cc1 | inconclusive [activator, single point]
O=C(CN1C(=O)COc2ccc(S(=O)(=O)N3CCCCCC3)cc21)NCCc1ccccc1 | inactive
CC(=O)N1CCN(c2csc3ccc(Br)cc3c2=O)CC1 | inactive
Cc1ccc(CNC(=O)c2cc(=O)c3cc(C)cc(C)c3o2)cc1 | inconclusive [inhibitor, full curve, poor fit]
O=C(c1cc(S(=O)(=O)Nc2ccccc2F)c(Cl)cc1Cl)N1CCN(CCO)CC1 | inactive
CC(CNC(=S)Nc1cc(F)cc(F)c1)CSc1ccc(Cl)cc1 (stereo not given) | active: 28.2 µM
Cc1ccc(C(=O)CSc2nnc(-c3c[nH]c4ccccc34)o2)cc1 | inconclusive [inhibitor, partial curve]
Cc1ccc(-n2c(=O)c3oc4ccccc4c3n(CC(=O)Nc3ccc(F)c(Cl)c3)c2=O)cc1C | inconclusive [inhibitor, single point]
Cc1ccccc1NC(=O)CSC(N)=O | inconclusive [inhibitor, partial curve]
CCC(C)NC(=O)Cc1ccc(NC(=O)N2CCCCc3ccccc32)cc1 (stereo not given) | inconclusive [inhibitor, single point]
CN1CCc2cc3c(cc2C(=O)Cc2ccc4c(c2C1)OCO4)OCO3 | inactive

SMILES | Potency
CCOC(=O)C1=C(C)N(c2ccccc2)C(=O)/C1=C\c1ccc(O)c(OC)c1 | active: 35.5 µM
CCc1nnc(NC(=O)c2ccc(S(=O)(=O)N(CC)CC)cc2)s1 | inactive
CC(=O)N1CC[C@H]2CC(=O)CC[C@@]21C | inactive
O=C(N/N=C/c1ccc(-c2ccc(Cl)c(C(=O)O)c2)o1)c1cc2c(ccc3ccccc32)o1 | inconclusive [inhibitor, partial curve]
C=CCNc1nc(NCc2ccco2)nc(OCC)n1 | inconclusive [inhibitor, single point]
CCCCC(CCC(=O)Nc1ccc(C(=O)OC)cc1)C(=O)O (stereo not given) | inactive
CCc1ccccc1NC(=O)C(CC)Oc1ccccc1-c1nnc(-c2ccccc2)o1 (stereo not given) | inactive
CCOc1ccc(CCNC(=O)c2cccc(-n3c(C)nc4cccnc43)c2C)cc1 | inactive
CCOC(=O)CCCN1C(=O)CCn2nc(-c3cn(C)c4ccccc34)cc21 | inconclusive [activator, single point]
O=C1NC(=O)[C@@]2(CCOc3ccc(F)cc32)N1 | inconclusive [inhibitor, single point]
COc1ccc(OCC(O)Cn2cnc(-c3ccc(Br)cc3)c2)cc1 (stereo not given) | inconclusive [inhibitor, single point]
CC(C)(C)c1cc(NCc2ccccn2)n2ncc(-c3ccc(Cl)cc3)c2n1 | inconclusive [activator, partial curve, poor fit]
COc1cccc2sc(NN)nc12 | inconclusive [inhibitor, partial curve, poor fit]
Cc1ccc(S(=O)(=O)c2nc(-c3ccco3)oc2SCc2ccc(F)cc2)cc1 | inconclusive [inhibitor, single point]
O=C(Cn1cnc2c(cnn2-c2ccc(F)cc2)c1=O)OCc1ccccc1 | inconclusive [inhibitor, single point]
COc1ccc(-c2cc(OC)c3c(C)oc(C)c3c(=O)c2)cc1OC | inconclusive [inhibitor, single point]
COc1ccc(-c2cc(C)no2)cc1S(=O)(=O)NC1CCC(C)CC1 (stereo not given) | inactive
COc1ccc(-n2c(N)c(C(=O)NCc3ccco3)c3nc4ccccc4nc32)cc1 | inconclusive [inhibitor, partial curve]
COc1cccc(NC(=O)c2c(N3CCCC3=O)c3cc(C)ccc3n2C)c1 | inactive
CCN(CC)S(=O)(=O)c1ccc(NC(=O)C2c3ccccc3Oc3ccccc32)cc1 | active: 28.2 µM
O=C(NCc1ccc(N2CCCC2=O)cc1)Nc1cccc2ccccc12 | inconclusive [inhibitor, single point]
O=C(C1CCCO1)N(c1cccc(Cl)c1)C1C=CS(=O)(=O)C1 (stereo not given) | inconclusive [inhibitor, partial curve]
COC(=O)N[C@H](c1ccccc1)[C@@]1(C)C[C@@H]1[C@@H](C)C(=O)Nc1ccc2ccccc2c1 | inconclusive [inhibitor, single point]
CCc1cccc(C)c1NC(=O)c1ccc2c(c1)CCN2S(=O)(=O)CC | inconclusive [activator, single point]

SMILES | Potency
Oc1ccc(/C=N/N2CCN(C3c4ccccc4-c4ccccc43)CC2)c(O)c1 | inconclusive [activator, partial curve]
CCOc1ccc(C(=O)NCCO)cc1 | inactive
Cn1c(N)c(C(=O)COC(=O)c2cc(C(F)(F)F)nc3ccccc23)c(=O)n(C)c1=O | inconclusive [inhibitor, partial curve]
COc1cc(-c2cccs2)cc(=O)c2c(C)oc(C)c12 | inconclusive [inhibitor, single point]
COc1ccc(S(=O)(=O)NCCc2csc3nc(-c4ccc(OC)c(OC)c4)nn23)cc1C | inactive
CC(=O)Nc1ccc(SCC(=O)c2c(N)n(Cc3ccccc3)c(=O)n(C)c2=O)cc1 | inactive
O=C1CCSc2ccc(S(=O)(=O)Nc3ccc(Cl)c(C(F)(F)F)c3)cc2N1 | inconclusive [inhibitor, partial curve]
O=C(CC1C(=O)NCCN1Cc1ccc(-c2ccccc2)cc1)NCc1ccccc1 (stereo not given) | inconclusive [inhibitor, partial curve]
NC(N)=Nc1nc(CSCC/C(N)=N\S(N)(=O)=O)cs1 | inactive
Oc1c(/C=N/c2ccccn2)sc2ccccc12 | inconclusive [activator, full curve]
COc1ccc(C)cc1NC(=O)NCc1cccn1Cc1ccccc1 | inactive
Cc1ccccc1C1N(c2nccs2)C(=O)C2CCCN21 (stereo not given) | inconclusive [inhibitor, single point]
N#CCC(=O)N/N=C/c1cc(-c2ccccc2)n(-c2ccc(Cl)cc2)c1-c1ccccc1 | inactive
Cc1ccc(S(=O)(=O)N2CCOCC2)cc1NC(=O)COC(=O)Cc1ccsc1 | inconclusive [inhibitor, full curve, poor fit]
COc1cccc(C(=O)Nc2ccc(-c3nc4ccccc4o3)c(O)c2)c1 | inconclusive [inhibitor, partial curve]
N#CC1=C(N)Oc2cc3ccccc3cc2C1c1cccs1 (stereo not given) | inconclusive [inhibitor, full curve, poor fit]
CCCCC1=CC2=C(c3ccco3)C(=O)C(C)(OC(=O)c3ccc(OC)cc3)C(=O)C2=CN1Cc1ccc(OC)cc1 (stereo not given) | inconclusive [inhibitor, single point]
COCCN(C(=O)CCl)C(C(=O)NC1CCCCC1)c1ccccc1C (stereo not given) | inconclusive [activator, partial curve]
CN=C1NN=C(c2cc(C)n(-c3ccc(Cl)cc3)c2C)CS1 | inconclusive [inhibitor, full curve, poor fit]
CCOCCCN(C(=O)Nc1ccc(Cl)cc1)C1CCN(C(C)=O)CC1 | inactive
Cc1c(CNC2CCCCCC2)c(C(=O)O)c(C)n1Cc1ccc(F)cc1Cl | inconclusive [inhibitor, partial curve, poor fit]
CC1OC(OCC2OC(Oc3c(-c4ccc(O)c(O)c4)oc4cc(O)cc(O)c4c3=O)C(O)C(O)C2O)C(O)C(O)C1O (stereo not given) | inactive
